The source of these data is PubChem BioAssay AID1508624 (National Center for Advancing Translational Sciences (NCATS), 2021).

Out of some 48,000 compounds screened, about 120 (0.25%) were called active. Another 4% or so got no clear call; they are omitted. The call rests on the fitted dose curve; in most records, active means well fitted activation curve with a large enough effect; inconclusive means small, poorly fitted or top-dose-only effect, or another doubt; inactive means no such curve, though single readings can be large or run the other way. The list shows a part of the results.

A short description of the test: Primary qHTS for Identification of Small Molecule Activators of Huntingtin-Antisense Promoter Activity. Further: nearly all actives have a fitted effect of over 55% in size. Conditions: HEK293 HTT-AS promoter firefly luciferase reporter (activity 0% = vehicle and -100% = no light), 24 h; series mostly up to 57.5 µM; activity change, positive = activation: at the top concentration. The method in brief: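 HEK293 luciferase promoter-reporter cells (2,500/well) plated 24 h, then compounds added at up to 57.5 uM final for 24 h at 37 °C. Firefly luminescence by Dual-Glo, normalized to vehicle (0%) and zero RLU (-100%).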
Background: qHTS replaces the single test concentration by a dilution series.
With `CCCC(=O)NCC1(N(C)C)CCCCC1`, the “activity change, positive = activation” value was inactive: -2.52%.

As for `COc1ccc(NC(=O)C(=O)NCCc2csc(-c3ccc(Cl)cc3)n2)cc1OC`, the “activity change, positive = activation” value is inactive: -5.78%.

As for `COc1ccccc1NC(=O)C(=O)NCC(c1ccc2c(c1)OCO2)N1CCN(C)CC1` (configuration not stated), the “activity change, positive = activation” value was inactive: -2.99%.

`CCN1CCN(c2ncc3c(n2)CCN(Cc2cc(F)cc(F)c2)C3)CC1`: the “activity change, positive = activation” value was inactive: -21.5%.

In the case of `COc1ccc(-c2nc3scc(CCNS(=O)(=O)c4ccc(C)cc4)n3n2)cc1`, the “activity change, positive = activation” value is inactive: -27.8%.

Take `Cn1c(=NC(=O)c2ccc(S(=O)(=O)N3CCCc4ccccc43)cc2)sc2cc(F)ccc21`: the “activity change, positive = activation” value is inactive: -24.1%.

Consider `CCCCCCCC/C=C/C(=O)O`, for which the “activity change, positive = activation” value was inactive: -1.61%.

With `CC(C)OCCCn1c(=O)c2ccccc2n2c(-c3ccc(F)cc3)nnc12`, the “activity change, positive = activation” value was inactive: -6.96%.

In the case of `COc1ccc(S(=O)(=O)N(CC(=O)Nc2ccccc2Br)Cc2ccccc2)cc1`, the “activity change, positive = activation” value is inactive: -23.7%.

In the case of `Cc1cccc(C(=O)Nc2c(-c3ccccc3)nc3cc(C)ccn23)c1`, the “activity change, positive = activation” value was inactive: -2.02%.

As for `Cc1ccc(S(=O)(=O)NC(=O)NC2CCCC2)cc1`, the “activity change, positive = activation” value was inactive: -3.36%.

Regarding `Cc1ccc(CNS(=O)(=O)c2cc3[nH]c(=O)c(=O)[nH]c3cc2C)cc1`, the “activity change, positive = activation” value is inactive: -9.56%.

As for `Cc1c(C(=O)NCc2cccc(Cl)c2)sc2nc3n(c(=O)c12)CCC3`, the “activity change, positive = activation” value is inactive: -1.96%.

For the compound `Cc1cn2c(=O)cc(COc3ccccc3NC(=O)c3ccco3)nc2s1`, the “activity change, positive = activation” value is inactive: -0.526%.

For the compound `Cc1ccc(S(=O)(=O)NC2(C(F)(F)F)C(=O)Nc3c2c(=O)[nH]c(=O)n3-c2ccccc2)cc1` (configuration not stated), the “activity change, positive = activation” value was inactive: -3.4%.

As for `NC(=O)c1nc(-c2ccc(F)c(F)c2)nc2c1[nH]c(=O)n2-c1cccc(Cl)c1`, the “activity change, positive = activation” value was inactive: -16%.

`CCN1CCN(CCCNC(=O)c2cnn(-c3ccc(C)cc3C)c2C2CCN(C(=O)OC(C)(C)C)CC2)CC1`: the “activity change, positive = activation” value was inactive: -29.8%.

For the compound `O=S(=O)(c1ccc(Br)cc1)c1nnn2c1nc(N1CCOCC1)c1sccc12`, the “activity change, positive = activation” value was inactive: 0.496%.

`Cc1ccc(C(=O)Nc2ccc3nc(SCC(=O)N4CCCc5ccccc54)sc3c2)cc1`: the “activity change, positive = activation” value was inactive: -10.5%.

Take `O=C(COC(=O)c1cc(-c2ccccc2)nc2ccccc12)c1ccc(Br)cc1`: the “activity change, positive = activation” value was inactive: -3.61%.

For the compound `CSc1nc2sc3c(c2c(=O)n1Cc1ccccc1)CCC(C(C)(C)C)C3` (configuration not stated), the “activity change, positive = activation” value was inactive: -23.6%.

As for `CCOc1cc(C(=O)OCc2cc(=O)n3nc(CC)sc3n2)cc(OCC)c1OCC`, the “activity change, positive = activation” value was inactive: 6.75%.

Turning to `CCC(=O)N1CCc2cc(Br)cc(S(=O)(=O)N3CCCC(C(=O)Nc4ccc(C(C)C)cc4)C3)c21` (configuration not stated), the “activity change, positive = activation” value was inactive: -17.6%.

For `CC1CCC(C(=O)NC(C(=O)OCC(=O)c2ccccc2)C(C)C)CC1` (configuration not stated), the “activity change, positive = activation” value was inactive: -22.3%.

In the case of `CCc1cnc2c(c1SCC(=O)c1ccccc1)c(=O)n(C)c(=O)n2C`, the “activity change, positive = activation” value was inactive: -10.3%.

As for `CCOc1sc2nc(C)n(CC(=O)Nc3cccc(C)c3)c(=O)c2c1C`, the “activity change, positive = activation” value is inactive: 3.2%.

Consider `Cc1scc2c1N(C(=O)CN1CCN(C)CC1)c1ccccc1NC2=O`, for which the “activity change, positive = activation” value was inactive: -5.46%.
